Reference: PMC10864363
No constants are given. Whether binding was seen depends on the method and setting. In cells and extracts the contact can be indirect. Some binding calls cover weakened binding; strength is not graded here.

By UniProt entry, the sequences of proteins in these tests, tags left out. Residues count along the entry.
UniProt Q3UFB7, residues 34-799: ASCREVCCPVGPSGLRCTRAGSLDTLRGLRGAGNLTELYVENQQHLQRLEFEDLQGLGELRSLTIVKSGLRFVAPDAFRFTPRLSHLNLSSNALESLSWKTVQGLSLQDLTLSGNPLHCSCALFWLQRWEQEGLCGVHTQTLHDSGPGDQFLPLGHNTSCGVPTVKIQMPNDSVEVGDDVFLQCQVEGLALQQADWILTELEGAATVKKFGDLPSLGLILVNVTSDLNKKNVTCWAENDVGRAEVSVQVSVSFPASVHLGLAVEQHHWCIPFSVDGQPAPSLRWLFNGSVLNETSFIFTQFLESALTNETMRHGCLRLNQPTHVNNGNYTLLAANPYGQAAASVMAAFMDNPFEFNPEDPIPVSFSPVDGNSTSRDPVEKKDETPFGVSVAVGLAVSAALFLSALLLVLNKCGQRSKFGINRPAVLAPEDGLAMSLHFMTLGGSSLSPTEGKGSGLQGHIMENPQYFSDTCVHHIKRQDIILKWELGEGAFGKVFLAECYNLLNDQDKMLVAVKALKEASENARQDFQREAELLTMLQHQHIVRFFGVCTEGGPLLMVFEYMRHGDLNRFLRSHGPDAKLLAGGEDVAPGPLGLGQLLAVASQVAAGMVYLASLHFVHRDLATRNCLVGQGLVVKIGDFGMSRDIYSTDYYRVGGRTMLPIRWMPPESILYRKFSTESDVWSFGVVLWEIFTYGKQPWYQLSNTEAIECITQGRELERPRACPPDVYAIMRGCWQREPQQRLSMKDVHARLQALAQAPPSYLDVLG
UniProt P15209, residues 32-821: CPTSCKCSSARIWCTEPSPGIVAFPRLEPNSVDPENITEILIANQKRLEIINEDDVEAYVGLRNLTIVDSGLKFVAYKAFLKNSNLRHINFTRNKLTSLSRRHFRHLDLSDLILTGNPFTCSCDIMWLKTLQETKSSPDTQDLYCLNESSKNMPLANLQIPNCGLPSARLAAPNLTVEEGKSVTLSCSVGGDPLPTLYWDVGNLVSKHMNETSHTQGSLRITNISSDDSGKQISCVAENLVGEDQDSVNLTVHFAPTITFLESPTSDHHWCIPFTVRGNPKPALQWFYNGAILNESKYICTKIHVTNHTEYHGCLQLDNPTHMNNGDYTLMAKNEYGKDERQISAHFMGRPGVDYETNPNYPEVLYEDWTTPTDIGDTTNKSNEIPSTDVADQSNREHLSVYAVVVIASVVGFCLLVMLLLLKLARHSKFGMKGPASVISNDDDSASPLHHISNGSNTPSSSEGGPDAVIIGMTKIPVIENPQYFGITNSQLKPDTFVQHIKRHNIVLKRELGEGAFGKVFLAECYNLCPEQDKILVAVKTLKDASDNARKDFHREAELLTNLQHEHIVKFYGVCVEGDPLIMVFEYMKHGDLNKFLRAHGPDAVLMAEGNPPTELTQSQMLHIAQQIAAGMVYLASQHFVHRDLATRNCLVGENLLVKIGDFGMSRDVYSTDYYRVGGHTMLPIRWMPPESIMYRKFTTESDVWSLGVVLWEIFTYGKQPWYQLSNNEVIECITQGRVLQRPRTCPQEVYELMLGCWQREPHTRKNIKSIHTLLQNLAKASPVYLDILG
UniProt Q6VNS1, residues 32-825: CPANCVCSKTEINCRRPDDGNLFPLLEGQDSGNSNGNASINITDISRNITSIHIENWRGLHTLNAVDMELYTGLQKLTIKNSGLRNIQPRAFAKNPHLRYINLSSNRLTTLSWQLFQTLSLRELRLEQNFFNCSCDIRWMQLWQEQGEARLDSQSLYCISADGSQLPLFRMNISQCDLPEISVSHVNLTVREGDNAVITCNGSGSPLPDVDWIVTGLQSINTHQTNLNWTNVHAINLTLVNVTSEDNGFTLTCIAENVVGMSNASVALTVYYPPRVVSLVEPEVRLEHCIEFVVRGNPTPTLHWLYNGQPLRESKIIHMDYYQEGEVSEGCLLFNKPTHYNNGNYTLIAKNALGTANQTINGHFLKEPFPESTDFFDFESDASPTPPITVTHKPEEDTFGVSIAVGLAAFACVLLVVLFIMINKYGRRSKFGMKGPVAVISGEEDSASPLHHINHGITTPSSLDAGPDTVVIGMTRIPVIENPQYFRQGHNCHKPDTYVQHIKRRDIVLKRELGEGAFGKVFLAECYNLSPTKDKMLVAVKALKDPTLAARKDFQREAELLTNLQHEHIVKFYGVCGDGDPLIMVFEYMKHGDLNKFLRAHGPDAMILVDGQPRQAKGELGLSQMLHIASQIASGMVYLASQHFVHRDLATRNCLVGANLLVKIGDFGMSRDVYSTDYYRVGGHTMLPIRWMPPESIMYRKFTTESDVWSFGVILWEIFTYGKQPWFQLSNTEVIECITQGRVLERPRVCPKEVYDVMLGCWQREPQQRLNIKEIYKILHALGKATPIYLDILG
UniProt P14873: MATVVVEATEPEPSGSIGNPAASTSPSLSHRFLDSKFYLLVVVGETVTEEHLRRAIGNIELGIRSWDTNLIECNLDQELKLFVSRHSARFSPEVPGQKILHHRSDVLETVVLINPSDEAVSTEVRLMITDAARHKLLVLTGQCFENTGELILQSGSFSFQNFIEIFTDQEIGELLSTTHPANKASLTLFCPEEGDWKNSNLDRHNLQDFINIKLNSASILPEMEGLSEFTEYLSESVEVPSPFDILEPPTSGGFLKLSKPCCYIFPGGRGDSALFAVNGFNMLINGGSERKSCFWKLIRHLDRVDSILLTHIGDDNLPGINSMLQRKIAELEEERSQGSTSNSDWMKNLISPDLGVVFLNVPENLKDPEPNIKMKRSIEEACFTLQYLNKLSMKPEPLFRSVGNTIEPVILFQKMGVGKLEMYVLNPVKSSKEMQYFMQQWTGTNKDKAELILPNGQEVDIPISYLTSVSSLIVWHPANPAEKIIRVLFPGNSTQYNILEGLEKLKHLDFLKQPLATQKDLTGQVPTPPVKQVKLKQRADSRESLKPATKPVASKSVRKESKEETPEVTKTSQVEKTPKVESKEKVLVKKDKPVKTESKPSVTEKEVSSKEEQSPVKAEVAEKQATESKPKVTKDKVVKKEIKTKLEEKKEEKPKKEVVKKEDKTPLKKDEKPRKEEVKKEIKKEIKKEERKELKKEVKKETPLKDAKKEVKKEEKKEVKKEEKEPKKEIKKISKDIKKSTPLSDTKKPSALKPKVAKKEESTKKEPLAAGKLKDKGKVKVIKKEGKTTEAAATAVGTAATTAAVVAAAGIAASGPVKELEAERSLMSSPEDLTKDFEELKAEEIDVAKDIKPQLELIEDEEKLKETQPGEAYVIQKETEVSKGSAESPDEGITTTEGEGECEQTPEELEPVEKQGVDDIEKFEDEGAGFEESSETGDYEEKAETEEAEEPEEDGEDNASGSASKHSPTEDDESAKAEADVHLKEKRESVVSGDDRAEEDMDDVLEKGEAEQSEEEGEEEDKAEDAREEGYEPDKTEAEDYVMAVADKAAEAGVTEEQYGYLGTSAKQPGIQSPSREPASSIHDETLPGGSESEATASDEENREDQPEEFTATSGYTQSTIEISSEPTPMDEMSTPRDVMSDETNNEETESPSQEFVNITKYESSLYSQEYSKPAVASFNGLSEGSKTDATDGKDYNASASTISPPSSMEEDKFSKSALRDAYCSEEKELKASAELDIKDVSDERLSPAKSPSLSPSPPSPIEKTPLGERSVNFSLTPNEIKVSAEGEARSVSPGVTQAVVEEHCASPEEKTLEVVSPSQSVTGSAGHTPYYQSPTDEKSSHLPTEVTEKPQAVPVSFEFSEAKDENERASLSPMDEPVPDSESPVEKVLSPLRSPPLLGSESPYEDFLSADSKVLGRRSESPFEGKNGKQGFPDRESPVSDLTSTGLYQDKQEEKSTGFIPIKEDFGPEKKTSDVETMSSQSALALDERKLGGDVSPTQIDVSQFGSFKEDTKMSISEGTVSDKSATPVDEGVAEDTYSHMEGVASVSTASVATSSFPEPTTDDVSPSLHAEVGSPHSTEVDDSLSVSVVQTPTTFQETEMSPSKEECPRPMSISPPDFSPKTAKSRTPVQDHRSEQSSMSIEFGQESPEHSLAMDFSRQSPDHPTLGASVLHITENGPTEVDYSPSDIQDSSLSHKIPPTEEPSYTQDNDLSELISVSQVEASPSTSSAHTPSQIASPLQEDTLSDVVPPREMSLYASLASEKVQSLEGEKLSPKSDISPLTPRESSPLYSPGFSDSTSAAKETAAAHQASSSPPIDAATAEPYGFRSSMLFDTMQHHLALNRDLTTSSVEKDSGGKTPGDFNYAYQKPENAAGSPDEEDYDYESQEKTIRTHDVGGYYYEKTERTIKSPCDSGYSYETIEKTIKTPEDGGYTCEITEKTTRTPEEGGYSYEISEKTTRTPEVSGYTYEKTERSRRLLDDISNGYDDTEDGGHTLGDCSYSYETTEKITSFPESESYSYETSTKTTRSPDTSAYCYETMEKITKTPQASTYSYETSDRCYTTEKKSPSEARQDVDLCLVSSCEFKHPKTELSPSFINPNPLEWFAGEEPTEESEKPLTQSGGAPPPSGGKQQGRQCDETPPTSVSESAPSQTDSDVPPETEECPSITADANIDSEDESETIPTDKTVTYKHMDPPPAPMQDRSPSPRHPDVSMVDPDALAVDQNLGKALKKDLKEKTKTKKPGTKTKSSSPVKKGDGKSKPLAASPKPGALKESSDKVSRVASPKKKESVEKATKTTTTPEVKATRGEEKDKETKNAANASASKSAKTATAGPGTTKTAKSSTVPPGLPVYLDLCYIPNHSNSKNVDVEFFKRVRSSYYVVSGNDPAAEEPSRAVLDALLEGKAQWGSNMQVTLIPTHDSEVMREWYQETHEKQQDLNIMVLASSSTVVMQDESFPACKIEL
UniProt Q9Z0W1, residues 32-427: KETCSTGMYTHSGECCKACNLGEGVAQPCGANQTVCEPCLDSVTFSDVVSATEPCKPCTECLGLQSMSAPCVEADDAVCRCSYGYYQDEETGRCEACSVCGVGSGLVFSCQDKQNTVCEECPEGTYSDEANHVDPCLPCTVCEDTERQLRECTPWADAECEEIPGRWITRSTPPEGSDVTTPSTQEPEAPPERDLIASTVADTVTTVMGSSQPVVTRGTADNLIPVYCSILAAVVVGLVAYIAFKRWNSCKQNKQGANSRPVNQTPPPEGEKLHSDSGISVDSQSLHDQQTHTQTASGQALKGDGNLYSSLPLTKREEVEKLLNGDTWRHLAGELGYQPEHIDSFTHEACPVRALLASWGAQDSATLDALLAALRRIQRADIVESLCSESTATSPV
UniProt Q2MHE5: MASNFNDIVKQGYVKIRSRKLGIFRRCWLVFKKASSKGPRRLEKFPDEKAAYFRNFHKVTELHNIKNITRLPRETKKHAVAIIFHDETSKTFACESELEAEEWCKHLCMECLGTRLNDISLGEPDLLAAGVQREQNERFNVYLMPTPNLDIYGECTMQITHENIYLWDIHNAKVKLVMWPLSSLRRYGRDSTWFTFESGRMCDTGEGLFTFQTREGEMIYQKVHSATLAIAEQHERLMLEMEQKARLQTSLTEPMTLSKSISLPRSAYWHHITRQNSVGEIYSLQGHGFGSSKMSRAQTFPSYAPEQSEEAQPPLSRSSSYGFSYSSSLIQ

Assays:
Assay in all cases: co-IP; P3 mouse sciatic nerve lysate; immunoprecipitation with TrkA, TrkB, TrkC, RET, p75NTR and MAP1B antibodies or isotype control antibodies and protein G Sepharose, overnight at 4 °C; four washes with lysis buffer; Western blot with anti-DOK6
[1] = target: Ret (mouse (endogenous in P3 sciatic nerve)) (UniProt P35546)
[2] = target: TrkA (mouse (endogenous in P3 sciatic nerve)) (UniProt Q3UFB7)
[3] = target: TrkB (mouse (endogenous in P3 sciatic nerve)) (UniProt P15209)
[4] = target: TrkC (mouse (endogenous in P3 sciatic nerve)) (UniProt Q6VNS1)
[5] = target: microtubule-associated protein 1B (MAP1B/MAP5) (mouse (endogenous in E18.5 brain and P3 sciatic nerve)) (UniProt P14873)
[6] = target: p75^NTR (mouse (endogenous in P3 sciatic nerve)) (UniProt Q9Z0W1)

binding [1]: binds
binding [2]: no binding
binding [3]: no binding
binding [4]: binds
binding [5]: binds
binding [6]: binds
Substance: Docking protein 6 (DOK6) (from UniProt Q2MHE5 1-331)
